The subject of this assay is Plasmodium falciparum NF54 stage V gametocytes. Nature of the assay: viability index relative to DMSO control (fraction); higher = less gametocyte killing. Particulars: 2.5 µM, incubation time: 72 h. Summed up: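 Compound at 2.5 µM was incubated for 72 hr at 37°C under low oxygen with P. falciparum NF54 stage V gametocytes (0.75% gametocytemia, 1.25% hematocrit, 10 µl, serum-free screening medium) in 1,536-well plates. Staining used 3 µl of 2.5 µM MitoTracker Red CMXRos plus 0.13% saponin for one to two hours, and red particles of 20–70 µm2 were counted in one imaged field per well. Each viability index is that count relative to the plate mean of solvent-only wells.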

The mark [1] stands for this setting: library set: Broad Institute DOS.

± gives the uncertainty stated by the source. Whole data set: some 9,900 compounds, median “viability index relative to DMSO control” near 1, cut for the lowest 2% near 0.85. The list shows a part of the results.

These results are taken from the supplement of paper PMC4723716.

Turning to `O=C(C1CCC1)N1CCCCN2[C@H](CO)[C@H](c3ccc(-c4ccncc4)cc3)[C@H]2C1`, the viability index under setting [1] turned out to be 1.07 ± 0.014.
Same read-out and setting: in the case of `C[C@@H]1CN([C@@H](C)CO)C(=O)c2cc(/C=C/c3ccccc3)cnc2O[C@H]1CN(C)S(=O)(=O)c1ccccc1F` it was 1.04 ± 0.023; in that of `OC[C@@H]1Nc2ccc(C#Cc3ccc(F)cc3)cc2[C@H]2[C@@H]1CCN2Cc1ccc2c(c1)OCO2`, 1.02 ± 0.041; in that of `CN1C(=O)c2cc(NC(=O)c3cccc(C(F)(F)F)c3)ccc2OC[C@H]2O[C@H](CC(=O)NCCN3CCCC3)CC[C@H]21`, 0.976 ± 0.093.
For `C/C=C/c1ccc([C@H]2[C@H](CO)N(S(=O)(=O)Cc3ccccc3)C23CN(C(=O)C2CCCC2)C3)cc1`, the viability index under setting [1] turned out to be 1.08 ± 0.037.
Turning to `CN1CCN(C(=O)c2cc3c(c(-c4cccc(-c5cccnc5)c4)n2)[C@@H](CCO)N(C(=O)CC2CC2)C3)CC1`, the viability index under setting [1] is 1.03 ± 0.14.
The same measure, in the same setting: in the case of `O=C(C[C@@H]1C[C@@H]2c3cc(NC(=O)c4ccc5c(c4)OCO5)ccc3O[C@@H]2[C@H](CO)O1)NCCN1CCCCC1` it was 1.09 ± 0.04; in that of `Fc1ccccc1-c1ccc([C@@H]2[C@@H]3CN(Cc4ccccn4)C[C@H]2N3)cc1`, 0.929 ± 0.062; in that of `Cc1ccc(S(=O)(=O)Nc2ccc3c(c2)C(=O)N([C@H](C)CO)C[C@@H](C)[C@H](CN(C)Cc2ccc(C(F)(F)F)cc2)O3)cc1`, 1.03 ± 0.044.
`CN(C)CC(=O)N1[C@H](CO)[C@H](c2ccccc2)C12CN(CCC(F)(F)F)C2`: the viability index under setting [1] stood at 1.02 ± 0.013.
Compound `COc1ccccc1-c1ccc([C@@H]2[C@H]3CN(C(=O)c4cccnc4)CCCCN3[C@H]2CO)cc1` returned a viability index under setting [1] of 0.9804 ± 0.0045.
For `C/C=C/c1ccc2n(c1=O)C[C@@H]1[C@@H](CO)[C@H](C(=O)N[C@H](C)c3ccccc3)N(C(=O)c3ccccn3)[C@H]21.C/C=C\c1ccc2n(c1=O)C[C@@H]1[C@@H](CO)[C@H](C(=O)N[C@H](C)c3ccccc3)N(C(=O)c3ccccn3)[C@H]21`, under setting [1], the viability index was 1.04 ± 0.021.
On to `Cn1cnc(S(=O)(=O)N2C[C@@H](O)COC[C@H]3O[C@@H](CC(=O)NCc4cccc(F)c4)CC[C@@H]32)c1`, for which the viability index under setting [1] turned out to be 1.02 ± 0.049.
`O=C(NC1CCCCC1)N1CC2(C1)[C@H](c1ccccc1)[C@H](CO)N2CC1CCCC1` gave a viability index under setting [1] of 1.1 ± 0.13.
Same read-out and setting: the figure for `C[C@@H]1CN([C@@H](C)CO)C(=O)c2cc(NC(=O)Nc3ccccc3)ccc2O[C@@H]1CN(C)Cc1ccccc1` is 1.06 ± 0.11.
Compound `C[C@H]1CCCCO[C@@H](CN(C)CC2CCCCC2)[C@@H](C)CN([C@@H](C)CO)C(=O)c2cc(NS(C)(=O)=O)ccc2O1` registered a viability index under setting [1] of 1.076 ± 0.0073.
On the same count and under the same terms, in the case of `CO[C@@H]1CC[C@@H]2CCOc3c(C#N)cccc3C(=O)N(C)CCCC(=O)N(C)C[C@H]1O2` it was 0.98 ± 0.045.
As to `CC(C)NC(=O)N1[C@@H]2CNC[C@H]1[C@@H]2c1ccc(/C=C/c2ccccc2)cc1`, under setting [1], the viability index worked out at 1.06 ± 0.068.
The same measure, in the same setting: in the case of `CCCC#Cc1ccc2c(c1)O[C@@H](CN(C)Cc1ccccn1)[C@H](C)CN([C@H](C)CO)S2(=O)=O` it was 0.865 ± 0.088; in that of `CCCNC(=O)N1C[C@]2(CN(Cc3cccc(F)c3)C2)c2c([nH]c3cc(OC)ccc23)[C@@H]1CO`, 0.903 ± 0.12; in that of `CCC(=O)N1C[C@@H](O)COC[C@@H]2O[C@H](CC(=O)NCc3ccc(Oc4ccccc4)cc3)CC[C@H]21`, 1.06 ± 0.023.
Same read-out and setting: in the case of `C/C=C/c1ccc([C@H]2[C@@H](CO)N(C(=O)c3ccccn3)C23CN(CCC(F)(F)F)C3)cc1` it was 1.076 ± 0.0094; in that of `O=C(C[C@@H]1CC[C@@H]2[C@H](COC[C@H](O)CN2CC2CCOCC2)O1)NCc1ccc(Cl)cc1`, 1.07 ± 0.12.
Still for that read-out and setting: in the case of `O=C(NC1CCCCC1)N1CC(=O)N2[C@H](CO)[C@@H](c3ccc(-c4ccncc4)cc3)[C@H]2C1` it was 1.058 ± 0.0052.
Under setting [1], `Cc1ccc(S(=O)(=O)N[C@H]2CC[C@@H](CC(=O)NCc3ccncn3)O[C@@H]2CO)cc1` returned a viability index of 1.01 ± 0.11.
On the same count and under the same terms, the figure for `N#C[C@H]1[C@H](c2ccccc2C2=CCCC2)[C@@H](CO)N1C(=O)C1CCOCC1` is 1.19 ± 0.085.
Same read-out and setting: the figure for `C/C=C/c1ccc([C@H]2[C@@H](CO)N3C(=O)CN(C(=O)Nc4cccc(OC)c4)C[C@H]23)cc1` is 1.03 ± 0.056.
The same measure, in the same setting: the figure for `CCC(=O)N1CC[C@@H]2[C@H](CO)Nc3ccc(C#Cc4ccccc4F)cc3[C@@H]21` is 1.12 ± 0.031; for `COc1ccc(NC(=O)N2CC[C@@]3(CC2)CN([C@@H](CO)c2[nH]c4cc(OC)ccc4c32)C(=O)CN2CCOCC2)cc1` it is 1.05 ± 0.076.
On to `COc1ccc(NC(=O)Nc2cccc3c2O[C@@H](CN(C)Cc2ccc(C(=O)O)cc2)[C@@H](C)CN([C@@H](C)CO)C3=O)cc1`, for which the viability index under setting [1] stood at 0.95 ± 0.17.
Under setting [1], `CC(C)(O)C#Cc1ccc([C@H]2[C@@H](CO)N3CCCCN(S(C)(=O)=O)C[C@H]23)cc1` gave a viability index of 1.096 ± 0.002.
The same measure, in the same setting: the figure for `Cc1ccccc1S(=O)(=O)Nc1ccc2c(c1)C(=O)N(C)[C@H]1CC[C@H](CC(=O)O)O[C@@H]1CO2` is 0.974 ± 0.046.
Same read-out and setting: in the case of `Cc1noc(C)c1S(=O)(=O)Nc1ccc2c(c1)C(=O)N([C@@H](C)CO)C[C@H](C)[C@H](CN(C)C(=O)NC1CCCCC1)O2` it was 1.04 ± 0.053.
In turn, `C[C@@H]1CN([C@H](C)CO)C(=O)c2cc(NS(C)(=O)=O)ccc2O[C@@H]1CN(C)C` displayed a viability index under setting [1] of 1.01 ± 0.047.
As to `CO[C@H]1CN(C)C(=O)c2cc(NC(=O)c3nc4ccccc4s3)ccc2OC[C@H](C)NC[C@@H]1C`, the viability index under setting [1] is 1.0273 ± 0.00044.
Still for that read-out and setting: in the case of `N#C[C@@H]1[C@H](c2ccccc2-c2cccc(F)c2)[C@@H](CO)N1C(=O)NC1CCCCC1` it was 1.12 ± 0.13; in that of `CNC[C@H]1Oc2cc(C#Cc3ccccc3OC)ccc2S(=O)(=O)N([C@H](C)CO)C[C@@H]1C`, 0.893 ± 0.059.
Same read-out and setting: in the case of `O=C(NCC[C@H]1CC[C@H](NS(=O)(=O)c2ccc(F)cc2)[C@@H](CO)O1)c1ccc2c(c1)OCO2` it was 0.982 ± 0.09.
Same read-out and setting: the figure for `O=C1Nc2ccccc2OCc2cn(nn2)CC[C@H]1Cc1ccc(-c2ccccc2)cc1` is 1.02 ± 0.17; for `O=C(C[C@@H]1CC[C@H]2NC[C@@H](O)COC[C@@H]2O1)NC1Cc2ccccc2C1` it is 0.9847 ± 0.0032.
`C[C@H](NC(=O)C[C@@H]1C=C[C@@H](NC(=O)c2cccnc2)[C@H](CO)O1)c1ccccc1` yielded a viability index under setting [1] of 0.915 ± 0.027.
Turning to `CC(C)(C)[S@](=O)N1Cc2cc(C(=O)NCc3ccccn3)nc(-c3cccc(-c4ccccc4F)c3)c2[C@@H]1CCO`, under setting [1], the viability index came out at 0.955 ± 0.08.
For the compound `O=C(C[C@H]1C=C[C@H](NC(=O)C2CCC2)[C@H](CO)O1)NC1CCCCC1`, the viability index under setting [1] stood at 1.03 ± 0.085.
In the case of `O=C(C1CCCCC1)N1CC2(C1)[C@H](c1ccccc1)[C@H](CO)N2C(=O)c1cccnc1`, the viability index under setting [1] was 0.9886 ± 0.007.
On to `CO[C@@H]1CC[C@H]2CCOc3ccc(C#N)cc3C(=O)N(C)C[C@H](c3ccccc3)CC(=O)N(C)C[C@@H]1O2`, for which the viability index under setting [1] worked out at 1.022 ± 0.0057.
Same read-out and setting: the figure for `CN(C)C(=O)c1cccc(-c2ccc([C@H]3[C@H]4CNC[C@@H]3N4C(=O)Nc3cccc(Cl)c3)cc2)c1` is 1.11 ± 0.043; for `C[C@H](CO)N1C[C@H](C)[C@@H](CN(C)C(=O)Nc2ccnc(N3CCOCC3)c2)OCc2cnnn2CCCC1=O` it is 0.9846 ± 0.0032; for `C[C@@H]1CN([C@H](C)CO)C(=O)Cc2cc(NS(=O)(=O)c3ccc(Cl)cc3)ccc2O[C@@H]1CN(C)C(=O)Nc1ccc(C(F)(F)F)cc1` it is 1.02 ± 0.051.
Still for that read-out and setting: the figure for `COCC(=O)N1[C@H](CO)[C@H](c2ccc(C#Cc3ccccc3F)cc2)[C@@H]1C#N` is 1.04 ± 0.064; for `COc1ccc(S(=O)(=O)N(C)C[C@H]2OCCCC[C@@H](C)Oc3ccc(NC(=O)Cc4ccccc4)cc3C(=O)N([C@@H](C)CO)C[C@@H]2C)cc1` it is 1.07 ± 0.17.
Same read-out and setting: in the case of `COc1ccccc1NC(=O)N1CCCCN2[C@H](CO)[C@@H](c3ccc(-c4cccc(C#N)c4)cc3)[C@H]2C1` it was 1.02 ± 0.021; in that of `C/C=C/c1ccc2n(c1=O)C[C@@H]1[C@@H](CO)[C@H](C(=O)NCC)N(Cc3cccc(F)c3)[C@H]21.C/C=C\c1ccc2n(c1=O)C[C@@H]1[C@@H](CO)[C@H](C(=O)NCC)N(Cc3cccc(F)c3)[C@H]21`, 0.99 ± 0.091; in that of `COc1cccc(C(=O)Nc2ccc3c(c2)C(=O)N(C)[C@H]2CC[C@@H](CC(=O)NCc4ccc(F)cc4)O[C@H]2CO3)c1`, 0.9078 ± 0.0035.
Regarding `CCCNC(=O)N(C)C[C@H]1Oc2cc(C#C[C@@H](C)O)ccc2S(=O)(=O)N([C@@H](C)CO)C[C@H]1C`, the viability index under setting [1] was 0.915 ± 0.15.
Still for that read-out and setting: the figure for `C[C@@H]1CCCCO[C@@H](CN(C)C(=O)CCCN(C)C)[C@H](C)CN([C@H](C)CO)C(=O)c2cc(NC(=O)Nc3ccc4c(c3)OCO4)ccc2O1` is 1.08 ± 0.012; for `COc1ccc2c3c([nH]c2c1)[C@H](CO)N(Cc1ccncc1)C[C@]31CN(C1)C(=O)CN(C)C` it is 1.04 ± 0.071; for `Cc1ccccc1-c1ccc([C@@H]2[C@@H](CO)N3CCCCN(S(=O)(=O)Cc4ccccc4)C[C@H]23)cc1` it is 0.915 ± 0.057.
The same measure, in the same setting: the figure for `N#C[C@H]1[C@@H](c2ccccc2-c2ccccc2F)[C@H](CO)N1C(=O)C1CCC1` is 1.14 ± 0.18.
On the same count and under the same terms, in the case of `CCS(=O)(=O)Nc1ccc2c(c1)C(=O)N(C)[C@@H]1CC[C@@H](CC(=O)NCCCN3CCOCC3)O[C@@H]1CO2` it was 1.07 ± 0.043; in that of `O=C(Cc1ccccn1)N[C@H]1CC[C@H](CCNS(=O)(=O)c2cccc(F)c2)O[C@@H]1CO`, 0.969 ± 0.029; in that of `Cc1cc(C(=O)Nc2cccc3c2O[C@H](CN(C)C)[C@@H](C)CN([C@@H](C)CO)C3=O)n(C)n1`, 0.95 ± 0.13.
In the case of `O=C(C[C@H]1C[C@@H]2c3cc(NS(=O)(=O)c4ccc(F)cc4)ccc3O[C@@H]2[C@H](CO)O1)NCCN1CCCCC1`, under setting [1], the viability index turned out to be 1.03 ± 0.042.
On the same count and under the same terms, the figure for `Cc1ccccc1S(=O)(=O)Nc1ccc2c(c1)C(=O)N(C)[C@@H]1CC[C@@H](CC(=O)O)O[C@@H]1CO2` is 1.1 ± 0.13.
In turn, `OC[C@H]1[C@@H](c2ccc(-c3ccc(F)cc3)cc2)[C@@H]2CN(CCC(F)(F)F)CCCCN12` came in with a viability index (library set: Broad Institute Blood Stage) of 0.959 ± 0.057.
On to `CO[C@H]1CN(C)C(=O)c2ccc(NS(C)(=O)=O)cc2OC[C@@H](C)N(CC2CC2)C[C@@H]1C`, for which the viability index under setting [1] was determined as 1.04 ± 0.02.
Under setting [1], `C[C@@H]1CCCCO[C@H](CN(C)Cc2ccncc2)[C@H](C)CN([C@@H](C)CO)C(=O)c2cc(NS(=O)(=O)c3ccc(Cl)cc3)ccc2O1` displayed a viability index of 1.04 ± 0.012.
In turn, `C[C@@H]1CN([C@H](C)CO)C(=O)CCCn2nncc2CO[C@H]1CN(C)C(=O)c1ccc(N2CCN(C)CC2)cc1` showed a viability index under setting [1] of 1.03 ± 0.024.
The same measure, in the same setting: in the case of `CCCC#Cc1ccc2c(c1)O[C@H](CN(C)Cc1ccccn1)[C@H](C)CN([C@@H](C)CO)S2(=O)=O` it was 0.847 ± 0.015.
